PubChem BioAssay AID1671194 (National Center for Advancing Translational Sciences (NCATS), 2021)
Screen size: about 140,000 compounds; about 240 (0.17%) were called active. This list was built around the results that the source calls inconclusive (neither active nor inactive); the mix of calls is not that of the screen. Calls come from the whole dose curve; as a rule, active = well fitted inhibition curve with a large enough effect; inconclusive = small, poorly fitted or top-dose-only effect; inactive = no such curve, though single readings can be large or run the other way. A potency beside an inconclusive call is a rough fit, not a confirmed value.

test: Primary qHTS assay for inhibitors of alpha-synuclein gene (SNCA) expression; details: HEK-293 SNCA-luciferase knock-in, luminescence, 24 h; series mostly up to 57.2 µM; note: nearly all actives have a fitted effect of over 45% in size
Potency is the fitted concentration of half-maximal effect; tags give direction and shape of the fitted curve.

Row | Compound | Potency
1 | COc1cccc(-c2ccc(CN3C4CCC3CN(C(C)C)C4)cc2)c1 | inconclusive: 22.4 µM [inhibitor, partial curve]
2 | COc1ccccc1Nc1cc(C(=O)NCCCN(C)c2ccccc2)c2ccccc2n1 | inconclusive: 22.4 µM [inhibitor, single point]
3 | COc1cccc(CNC(=O)c2ccc(Cn3c(SCc4ccccc4)nc4cccnc43)cc2)c1 | inconclusive: 39.8 µM [inhibitor, single point]
4 | CNC(=O)CCn1ncc2cc(OCc3ccccc3-c3ccc(F)c(Cl)c3)ccc21 | inconclusive: 1 µM [inhibitor, single point]
5 | COc1ccc(N2CC3CCC(C2)N3Cc2ccc(-c3cccnc3)cc2)cc1 | inactive
6 | CCCc1noc(-c2cn(C3CCN(C(=O)c4ccc(N(C)C)cc4)CC3)nn2)n1 | inconclusive: 22.4 µM [inhibitor, single point]
7 | Cc1ccc(NC(=O)N2CCc3c(C(=O)NCCc4ccccn4)cccc32)cc1 | inconclusive: 12.6 µM [inhibitor, partial curve, poor fit]
8 | Cc1ccc(-n2nc(C)c([C@@H]3C=C[C@@H](NCc4cccc(C#N)c4)C3)c2C)cc1Cl | inconclusive: 56.2 µM [inhibitor, single point]
9 | CCCCN(Cc1ccccc1)C(=O)c1oc(=O)c2ccccc2c1-c1ccc(C)cc1 | inconclusive: 39.8 µM [inhibitor, single point]
10 | O=C(NCc1cccc(F)c1)C1=Cc2cc(Br)ccc2OC1 | inconclusive: 39.8 µM [inhibitor, single point]
11 | COc1ccccc1CNC(=O)C1CN(C2CCCC2)C(=O)N1 (stereo not drawn) | inconclusive: 15.8 µM [inhibitor, partial curve, poor fit]
12 | CCCN(CC1CCOC1)S(=O)(=O)c1ccc(F)cc1F (stereo not drawn) | inactive
13 | C[C@H]1CN(C(=O)Nc2ccc(F)cc2F)C[C@@H]1c1nc(-c2ccccc2)no1 | inconclusive: 6.31 µM [inhibitor, single point]
14 | Cc1ccc(-c2cc3c(=O)n(CCNC(=O)c4ccc(Cl)cc4)ccn3n2)cc1C | inactive
15 | Nc1ncnc2c1ncn2[C@@H]1O[C@H](CO)[C@@H](O)[C@@H]1O | inconclusive: 3.04 µM [inhibitor, full curve, poor fit]
16 | C=CCCC(CN1CCOCC1)Oc1nccc(N(C)CC)n1 (stereo not drawn) | inconclusive: 2.24 µM [inhibitor, partial curve, poor fit]
17 | O=S1(=O)NCC2(CCN(Cc3ccoc3)CC2)Oc2ncccc21 | inactive
18 | CCCC(=O)N1Cc2ccccc2CC2(CCCCN2Cc2ccncc2)C1 (stereo not drawn) | inactive
19 | O=C(Nc1cnc(-c2ccccc2)nc1)C1CCCC1 | inconclusive: 12.6 µM [inhibitor, single point]
20 | CCN1C(=O)N(CC(N)=O)C(=O)C12CCN(Cc1cccc(Oc3ccccc3)c1)CC2 | inconclusive: 39.8 µM [inhibitor, single point]
21 | CCCC(C)C(=O)N1CCn2nc(C(=O)Nc3ccccc3)cc2C1 (stereo not drawn) | inactive
22 | O=C(N[C@H](C1CCNCC1)C1CC(O)C1)c1cccc(=O)[nH]1 (stereo partly drawn) | inactive
23 | O=C(C1CCCN1c1nccc(Nc2ccccc2F)n1)N1CCN(c2ncccn2)CC1 (stereo not drawn) | inconclusive: 31.6 µM [inhibitor, single point]

Row | Compound | Potency
24 | CCCCN(C)C(=O)C(Cc1ccccc1)NS(=O)(=O)c1ccc2c(c1)c(=O)n(C)c(=O)n2C (stereo not drawn) | inconclusive: 39.8 µM [inhibitor, partial curve, poor fit]
25 | O=C(Nc1ccccc1)NC1CCCN(Cc2ccc(-c3cncnc3)cc2)C1 (stereo not drawn) | inconclusive: 5.62 µM [inhibitor, full curve, poor fit]
26 | CN(C)C(=O)C1CN(C(=O)Nc2ccc(F)c(Cl)c2)CC12CCOCC2 (stereo not drawn) | inconclusive: 1.78 µM [inhibitor, full curve, poor fit]
27 | O=C(NCc1cccc(C(F)(F)F)c1)c1nc2sccn2c1-c1cccc(C(F)(F)F)c1 | inconclusive: 2.24 µM [inhibitor, full curve, poor fit]
28 | COc1ccc2[nH]c3c(c2c1)CCNC31CCN(C(=O)c2cccnc2C)CC1 | active: 20 µM
29 | COc1ccccc1-c1nnc2ccc(C(=O)NCc3cccc(C(F)(F)F)c3)cn12 | inconclusive: 39.8 µM [inhibitor, single point]
30 | CCOC(=O)C1=C(CS(=O)(=O)c2ccc(Br)cc2)NC(=O)NC1c1ccccc1 (stereo not drawn) | inconclusive: 0.158 µM [inhibitor, partial curve, poor fit]
31 | O=C(c1nnc(COc2ccc(F)c(F)c2)n1-c1ccccc1)N1CCC[C@@H]1c1cccc(F)c1 | inconclusive: 14.1 µM [inhibitor, partial curve, poor fit]
32 | O=C(NCC(c1cccnc1)N1CCN(Cc2ccccc2)CC1)C(=O)Nc1ccc(Cl)cc1 (stereo not drawn) | inconclusive: 12.6 µM [inhibitor, partial curve, poor fit]
33 | CN(C)c1ccc(C(=O)N2CCN(C(=O)c3ccc(N(C)C)cc3)[C@H](C(=O)N[C@H](Cc3c[nH]c4ccccc34)C(N)=O)C2)cc1 | inactive
34 | Cc1nc(C(C)C)sc1C(=O)N(C)Cc1cc(C2CC2)n[nH]1 | inconclusive: 39.8 µM [inhibitor, single point]
35 | Cc1cccc(N(CC(=O)Nc2ccc(Br)cc2)S(C)(=O)=O)c1C | inconclusive: 39.8 µM [inhibitor, single point]
36 | COc1cccc(CN2CC(Oc3ccccc3C(=O)N3CCOCC3)C2)c1 | inactive
37 | CC(=O)c1cccc(S(=O)(=O)NCCc2csc3nc(-c4ccc(F)cc4)nn23)c1 | inactive
38 | Clc1ccc(C2CN(c3cc(C4CC4)ncn3)CCO2)cc1 (stereo not drawn) | inactive
39 | C[S+](=O)([O-])c1ccc(CC(=O)N2CC(COc3ccccc3)C3(C2)CN(c2ccccc2)C3)cc1 (stereo not drawn) | inconclusive: 2 µM [inhibitor, partial curve, poor fit]
40 | Cc1ccc(CC(=O)N2CCC(Cc3nc(-c4ccccc4)no3)CC2)cc1 | inactive
41 | CCOc1ccccc1NC(=O)CN1C(=O)CC(c2ccco2)Sc2ccccc21 (stereo not drawn) | inconclusive: 7.08 µM [inhibitor, single point]
42 | Cc1nc(-c2ccccc2)n(CC(=O)Nc2ccccc2)c(=O)c1CCO | inactive
43 | CN1CCCC1CCNc1nccc(-c2cnn(-c3ccccc3F)c2)n1 (stereo not drawn) | inactive
44 | COc1ccc(-c2nc(C(=O)Nc3cccc(C(C)=O)c3)nn2-c2ccc(Cl)cc2)cc1 | inactive
45 | COc1ccc(NC(=O)N2C[C@@H]3C[C@H](C2)c2ccc(NC(=O)Nc4cccc(C#N)c4)c(=O)n2C3)cc1 | inconclusive: 39.8 µM [inhibitor, single point]
46 | COc1ccc(Nc2ccnc(N3CCC(NC(C)=O)CC3)n2)cc1 | inconclusive: 39.8 µM [inhibitor, single point]

Row | Compound | Potency
47 | Cc1ccc(NC(=O)c2ncn(-c3ccccc3)n2)cc1Cl | inactive
48 | CCc1ccc(NC(=O)N2CCCC(c3noc(COc4ccccc4F)n3)C2)cc1 (stereo not drawn) | inactive
49 | NC[C@@H]1O[C@H](C23CC4CC(CC(C4)C2)C3)Cc2c1ccc(O)c2O | inconclusive: 11.2 µM [inhibitor, partial curve, poor fit]
50 | O=C(CCC[C@@H]1[C@H]2CCCN3CCC[C@@H](CN1Cc1ccccc1)[C@@H]23)N1CCOCC1 | inconclusive: 6.31 µM [inhibitor, single point]
51 | COCc1nc(C2CCN(S(=O)(=O)c3cccc(OC)c3)C2)no1 (stereo not drawn) | inconclusive: 15.8 µM [inhibitor, partial curve, poor fit]
52 | COc1ccc(OC)c(S(=O)(=O)N2CC(N3CC(C(=O)N4CCCC4)CC3=O)C2)c1 (stereo not drawn) | inactive
53 | CCOCCNC(=O)c1nc2cccnc2n(CCc2ccccc2)c1=O | inactive
54 | Cc1ccc(C)c(NS(=O)(=O)c2ccc3c4c(cccc24)C(=O)N3)c1 | inconclusive: 39.8 µM [inhibitor, single point]
55 | Cc1cccc(NC(=O)N2CCc3c(C(=O)N4CCN(C)CC4)cccc32)c1 | inconclusive: 39.8 µM [inhibitor, single point]
56 | CCCS(=O)(=O)N1CCC(N2C(=O)[C@H](OC)[C@@H]2c2ccncc2)CC1 | inactive
57 | O=C(Cc1cccc(Cl)c1)N1CCCC(C(=O)N2CCC(N3Cc4cccn4C3=O)CC2)C1 (stereo not drawn) | inconclusive: 8.91 µM [inhibitor, single point]
58 | Cc1c(NS(=O)(=O)c2cccc(C(=O)O)c2)c(=O)n(-c2ccccc2)n1C | inconclusive: 7.08 µM [inhibitor, single point]
59 | O=C(CCc1nc2ccccc2[nH]c1=O)N1CCN(CCn2cncn2)CC1 | inactive
60 | Cc1ccc(CN2CC(Cn3c(C)cnc3-c3ccncc3)C2)o1 | inactive
61 | O=C(NCc1c[nH]c2ncccc12)c1cccnc1 | inactive
62 | O=C(NC1CCN(Cc2cccc(-c3cccs3)c2)CC1)C1CC1 | inactive
63 | Cc1ccccc1-c1cc(C(=O)N2CCC3(CC2)CC(O)CCO3)[nH]n1 (stereo not drawn) | inactive
64 | O=C(c1nnn2c1COC(c1ccc(Cl)cc1)C2)N1CCN(C(=O)c2c(F)cccc2F)CC1 (stereo not drawn) | inactive
65 | CCOC(=O)CNC(=O)N1CCC2(CC1)N(Cc1ccccc1)C(=O)CS2(=O)=O | inactive
66 | COC[C@@H]1CN(c2cnccn2)C[C@H]1C(=O)NCc1ccccn1 | inactive
67 | COc1ccccc1-c1nc(NC2CC2)c2ccccc2n1 | inconclusive: 39.8 µM [inhibitor, single point]
68 | COc1ccc(S(=O)(=O)N2CCCC(Cn3c(C)nc4cccnc43)C2)cc1 (stereo not drawn) | inconclusive: 1.58 µM [inhibitor, partial curve, poor fit]
